The whole screen tested about 310,000 compounds, of which about 2,200 (0.71%) showed an effect of 50% or more. Effects have a minus sign here. Some of the results follow.
What follows are compounds tested against human ether-à-go-go-related gene (hERG) potassium channel (human, UniProt Q12809) (assay: primary screen, population patch clamp on CHO cells stably expressing hERG).
human ether-à-go-go-related gene (hERG) potassium channel, sequence (Q12809 whole entry, looked up): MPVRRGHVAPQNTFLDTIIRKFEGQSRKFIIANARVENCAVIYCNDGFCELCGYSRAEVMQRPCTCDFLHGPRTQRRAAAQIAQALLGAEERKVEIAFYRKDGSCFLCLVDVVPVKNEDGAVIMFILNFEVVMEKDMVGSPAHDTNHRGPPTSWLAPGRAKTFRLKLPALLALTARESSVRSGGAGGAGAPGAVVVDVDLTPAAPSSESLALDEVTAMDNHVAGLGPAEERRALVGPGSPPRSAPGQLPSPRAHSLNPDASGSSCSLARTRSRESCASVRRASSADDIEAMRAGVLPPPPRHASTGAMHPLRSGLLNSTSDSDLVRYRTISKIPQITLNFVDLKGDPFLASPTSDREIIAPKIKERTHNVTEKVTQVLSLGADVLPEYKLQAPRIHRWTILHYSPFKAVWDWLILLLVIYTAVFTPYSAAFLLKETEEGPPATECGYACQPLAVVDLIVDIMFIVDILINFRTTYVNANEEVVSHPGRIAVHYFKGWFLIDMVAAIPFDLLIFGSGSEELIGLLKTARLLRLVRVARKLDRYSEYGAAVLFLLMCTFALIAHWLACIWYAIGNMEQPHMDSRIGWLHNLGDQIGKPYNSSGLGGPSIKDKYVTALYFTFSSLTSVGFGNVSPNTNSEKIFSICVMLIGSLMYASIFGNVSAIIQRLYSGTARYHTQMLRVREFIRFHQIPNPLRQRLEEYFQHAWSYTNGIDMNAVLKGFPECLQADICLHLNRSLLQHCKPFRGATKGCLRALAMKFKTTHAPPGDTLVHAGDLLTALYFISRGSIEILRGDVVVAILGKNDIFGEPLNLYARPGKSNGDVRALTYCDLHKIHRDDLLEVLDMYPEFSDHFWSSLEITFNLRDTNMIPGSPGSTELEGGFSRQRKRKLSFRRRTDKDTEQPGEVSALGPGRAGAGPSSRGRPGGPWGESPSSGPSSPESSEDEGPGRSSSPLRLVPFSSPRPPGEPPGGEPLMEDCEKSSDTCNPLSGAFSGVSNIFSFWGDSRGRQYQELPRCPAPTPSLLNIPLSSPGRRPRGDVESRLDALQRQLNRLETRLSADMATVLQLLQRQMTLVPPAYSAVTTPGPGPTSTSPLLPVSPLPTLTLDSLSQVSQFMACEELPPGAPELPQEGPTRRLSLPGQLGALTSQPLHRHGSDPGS

Going from `Cc1ccccc1-n1c(CNc2ccccc2)nc2ccccc2c1=O` to `CCOC(=O)c1cnc(-c2ccccc2)nc1-c1ccccc1`, the “hERG current change (%, negative = inhibition) at 1uM” value falls from 14.1% to 10.6%.

First: O=C(CCCC(=O)N1CCN(c2ccc([N+](=O)[O-])cc2)CC1)c1ccccc1
Second: O=C(CCNS(=O)(=O)c1ccccc1F)N1CCN(Cc2ccccc2)CC1
The “hERG current change (%, negative = inhibition) at 1uM” value of the first is lower: -66% for the first, 8.79% for the second.

First: CCC(=O)NCCc1nc2ccccc2n1CC(=O)c1ccccc1
Second: CCCNC(=O)CSc1nc2ccccc2c(=O)n1CCC
The “hERG current change (%, negative = inhibition) at 1uM” value of the first is higher: 11.5% for the first, 4.07% for the second.

Going from `CCC(=O)NC(=S)Nc1ccc(NC(=O)c2ccc(OC)cc2)cc1` to `CCOC(=O)c1cc(-c2ccccc2)sc1NC(=O)c1ccc(OC)cc1`, the “hERG current change (%, negative = inhibition) at 1uM” value rises from 12.4% to 16.6%.

Going from `CC(C)(C)c1ccc(COC(=O)CN2C(=O)NC3(CCCC3)C2=O)cc1` to `CC(C)(C)c1ccc(C(=O)NNC(=O)c2ccccc2Br)cc1`, the “hERG current change (%, negative = inhibition) at 1uM” value rises from -2.21% to 6.86%.

Going from `COC(=O)c1cccc(NC(=O)Nc2ccccc2OC)c1` to `COc1cc(OC)cc(C(=O)Nc2cccc(NC(C)=O)c2)c1`, the “hERG current change (%, negative = inhibition) at 1uM” value rises from 4.27% to 4.71%.

First: CC(C)=CCN1CCNC(=O)C1CC(=O)NCc1nc(C)c(C)s1 (stereo not shown)
Second: Cc1csc(CN(C)C(=O)CC2C(=O)NCCN2CC(C)(C)C)n1 (stereo not shown)
The “hERG current change (%, negative = inhibition) at 1uM” value of the first is lower: 4.66% for the first, 8.42% for the second.

Going from `COc1ccc(CCNC(=O)C(C)n2nc(C)c3c(C)n(-c4ccc(C)cc4)nc3c2=O)c(OC)c1` (stereo not shown) to `CCC(=O)N(CCc1ccc(OC)c(OC)c1)Cc1cc2ccc(C)cc2n2nnnc12`, the “hERG current change (%, negative = inhibition) at 1uM” value falls from -6.45% to -19.5%.

Going from `COc1ccc(/C=N/NC(=O)Nc2cccc3nsnc23)c(OC)c1` to `COc1ccc(OCC(=O)Nc2ccc3nc(C)sc3c2)cc1`, the “hERG current change (%, negative = inhibition) at 1uM” value rises from 3.18% to 12.8%.

First: CC(C)(C)NC(=O)c1cc(NC(=O)c2ccco2)cc(NC(=O)c2ccco2)c1
Second: CCOC(=O)c1cc(NC(=O)c2cnccn2)cc(C(=O)OCC)c1
The “hERG current change (%, negative = inhibition) at 1uM” value of the first is higher: -5.87% for the first, -7.09% for the second.

Going from `CC(=O)Nc1ccc(S(=O)(=O)N(C#N)c2nc(C)cc(C)n2)cc1` to `COc1ccccc1CC(=O)Nc1ccc(S(=O)(=O)N2CC(C)CC(C)C2)cc1` (stereo not shown), the “hERG current change (%, negative = inhibition) at 1uM” value falls from 16.3% to 8.79%.

First: CC(C)n1cc(CN2CCC(n3nccc3NC(=O)C3CCCC3)CC2)cn1
Second: CSc1nnc(C2CCCN(CC(=O)Nc3ccccc3N3CCOCC3)C2)n1C(C)C (stereo not shown)
The “hERG current change (%, negative = inhibition) at 1uM” value of the first is lower: 6.1% for the first, 7.36% for the second.

First: O=C(c1ccc2oc(CCc3ccccc3)nc2c1)N1CCC(O)CC1
Second: COc1ccc(Cc2nc3ccc(C(=O)N4CCCN(C=O)CC4)cc3o2)cc1
The “hERG current change (%, negative = inhibition) at 1uM” value of the first is higher: 14% for the first, 13.4% for the second.

Compared with `CN(C)S(=O)(=O)c1ccc(C(=O)NC2CCCc3ccccc32)cc1` (stereo not shown), `COc1ccc(CNC(=O)C2=CCN(S(=O)(=O)c3ccc(C)cc3)CC2)cc1` is lower in “hERG current change (%, negative = inhibition) at 1uM” value: 7.14% for the first, -5.06% for the second.

Going from `CCC(=O)N1CCc2cc(S(=O)(=O)NCCN3CCC(C)CC3)ccc21` to `COc1ccc(CCNC(=O)c2cc(S(=O)(=O)N(C)C)ccc2N2CCCC2)cc1OC`, the “hERG current change (%, negative = inhibition) at 1uM” value rises from 3.14% to 12.4%.

First: Cc1cccn2c(=O)c(C(=O)NC3CCCCC3C)c(O)nc12 (stereo not shown)
Second: CCCc1nc(SCC(=O)NC2CCCC2)c2ccccc2n1
The “hERG current change (%, negative = inhibition) at 1uM” value of the first is lower: -5.55% for the first, 8.44% for the second.

Going from `O=C(Nc1nnc(CCc2ccccc2)s1)c1ccccc1F` to `O=C(c1cnn(-c2nc3ccccc3s2)c1)c1ccccc1O`, the “hERG current change (%, negative = inhibition) at 1uM” value falls from 13.8% to 12%.

First: COc1cc(-c2nc(-c3ccc(Br)o3)no2)cc(OC)c1OC
Second: COc1ccccc1Oc1ncnc2sccc12
The “hERG current change (%, negative = inhibition) at 1uM” value of the first is higher: 19.3% for the first, -1.96% for the second.

First: N#C/C(=C(/O)COC(=O)CCCNC(=O)c1ccc(Cl)cc1)c1nc2ccccc2[nH]1
Second: CN(C)CCNC(=O)c1ccc2c(=O)n(Cc3ccc(Cl)cc3)c(=S)[nH]c2c1
The “hERG current change (%, negative = inhibition) at 1uM” value of the first is higher: 9.79% for the first, 6.22% for the second.

First: CCCCn1c(-c2nn(C)c(C)c2Cl)n[nH]c1=S
Second: CCCCc1c(C)nc(Nc2ccc(OC)cc2)[nH]c1=O
The “hERG current change (%, negative = inhibition) at 1uM” value of the first is higher: 6.33% for the first, -1.49% for the second.

Going from `CC(C)(C)CC(=O)Nc1ccccc1N1CCN(c2ccc(F)cc2)CC1` to `Cc1ccc(C(=O)N2CCN(c3ccc(NC(=O)c4cccs4)cc3)CC2)cc1`, the “hERG current change (%, negative = inhibition) at 1uM” value falls from 11.6% to -8.11%.

Compared with `Cc1ccc2oc(C(=O)NCCC3CCCCO3)c(C)c2c1` (stereo not shown), `O=C(NCC1CCCO1)c1c(O)c2ccccc2[nH]c1=O` (stereo not shown) is higher in “hERG current change (%, negative = inhibition) at 1uM” value: 5.65% for the first, 7.7% for the second.

First: CCOC(=O)C[C@H]1c2ccc(C(F)(F)F)cc2S(=O)(=O)N1c1cccc(OC)c1
Second: COc1cccc(OCCOc2ccccc2OC(C)C)c1
The “hERG current change (%, negative = inhibition) at 1uM” value of the first is lower: 0.0331% for the first, 13% for the second.

First: COC(=O)c1ccccc1-c1c2ccc(=[NH2+])cc-2oc2cc(N)ccc12.O.[Cl-]
Second: COc1ccc(NC(=O)CN(C)C(=O)c2cc(-c3ccc(C)o3)nc3ccccc23)cc1
The “hERG current change (%, negative = inhibition) at 1uM” value of the first is lower: -5.95% for the first, 2.81% for the second.

Going from `C=CCn1c(C)cc(-c2csc(NC(=O)C3=COCCO3)n2)c1C` to `Cn1cc(S(=O)(=O)Nc2ccc3c(c2)OCCO3)cn1`, the “hERG current change (%, negative = inhibition) at 1uM” value falls from 11.4% to 1.33%.

First: Nc1nnnn1CC(=O)N/N=C/C=C/c1ccccc1
Second: COC(=O)C(C)n1cnc2c(nnn2-c2ccccc2)c1=O (stereo not shown)
The “hERG current change (%, negative = inhibition) at 1uM” value of the first is higher: 13.1% for the first, 0.753% for the second.

Going from `CC1(C)Cc2ccccc2-c2nnc(-c3cccc(O)c3)n21` to `Cc1c(C(=O)N2c3ccccc3CC2C)oc2ccccc12` (stereo not shown), the “hERG current change (%, negative = inhibition) at 1uM” value falls from 17% to 13.6%.

Going from `CC(C)(C)n1nnnc1C(c1cccs1)N(Cc1cccnc1)CC1CCCO1` (stereo not shown) to `FC(F)(F)c1cccc(Cc2noc(CN(Cc3ccccn3)CC3CCCO3)n2)c1` (stereo not shown), the “hERG current change (%, negative = inhibition) at 1uM” value falls from -1.67% to -5.31%.

First: O=c1oc(-c2ccccc2)nc2ccsc12
Second: CCOC(=O)c1cnc2c(C#N)c(C)nn2c1-c1ccccc1
The “hERG current change (%, negative = inhibition) at 1uM” value of the first is lower: 5.1% for the first, 7.49% for the second.

First: CCCc1cc(=O)oc2cc(OCc3ccc(C(=O)O)o3)ccc12
Second: CCOc1ccc(NC(=O)C(CC(=O)O)Cc2ccc(Br)cc2)cc1 (stereo not shown)
The “hERG current change (%, negative = inhibition) at 1uM” value of the first is lower: 12.6% for the first, 19.8% for the second.

First: COc1cccc(NC(=S)NC(=O)/C=C/c2ccco2)c1
Second: COc1ccc(NC(=O)/C=C/c2c(Cl)nc3ccccn23)cc1
The “hERG current change (%, negative = inhibition) at 1uM” value of the first is higher: 8.72% for the first, -17.7% for the second.

Going from `CN1CCCN(C(=O)c2cccc(Br)c2)CC1` to `CCN1CCN(C(=O)C(=O)c2cn(CC(=O)N(CC)CC)c3ccccc23)CC1`, the “hERG current change (%, negative = inhibition) at 1uM” value falls from 16.5% to 12.6%.

Going from `CCOc1ccc(NC(=O)C2CCN(C(=O)NCc3ccccc3)CC2)cc1` to `CCS(=O)c1ccccc1C(=O)OC(C)C(=O)Nc1ccc(S(=O)(=O)N2CCCC2)cc1` (stereo not shown), the “hERG current change (%, negative = inhibition) at 1uM” value rises from -5.56% to 16.7%.

First: O=C(c1cnc2n(c1=O)CCS2)N(c1ccccc1)C1CCCCC1
Second: CCc1ccc(N(C(=O)C(F)(F)F)C(C(=O)NC2CCCCC2)c2ccncc2)cc1 (stereo not shown)
The “hERG current change (%, negative = inhibition) at 1uM” value of the first is lower: 12.9% for the first, 16.7% for the second.

Going from `Cc1cc(NC(=O)c2cc3n(n2)C(C(F)(F)F)CC(c2ccco2)N3)n(-c2ccccc2)n1` (stereo not shown) to `Cc1cccc(NC(=O)c2cc3n(n2)C(C(F)(F)F)CC(c2ccc4c(c2)OCO4)N3)c1` (stereo not shown), the “hERG current change (%, negative = inhibition) at 1uM” value falls from 13.9% to 6.41%.

Going from `O=C(Nc1ccc(Cl)cc1)/C(=C1\CCCN1)[N+](=O)[O-]` to `Cc1ccc(NC(=S)NNC(=O)c2ccccc2OC(F)F)cc1`, the “hERG current change (%, negative = inhibition) at 1uM” value falls from 12.3% to 4.3%.

First: Nc1cc2c(cc1[N+](=O)[O-])OCCO2
Second: O=C(CSc1ncnc2ccccc12)Nc1ccc2c(c1)OCO2
The “hERG current change (%, negative = inhibition) at 1uM” value of the first is higher: 12.7% for the first, 3.76% for the second.

First: CSCC[C@H](NS(=O)(=O)c1ccc(C)cc1)C(=O)N1CCC(C(=O)N[C@@H](Cc2ccc(O)cc2)C(=O)O)CC1
Second: CCCc1ccc(-c2cc(C(=O)NCCc3ccc(S(N)(=O)=O)cc3)c3ccccc3n2)cc1
The “hERG current change (%, negative = inhibition) at 1uM” value of the first is lower: 9.25% for the first, 16.3% for the second.

Going from `Cn1c(=O)[nH]c(=O)c2c1nc(N1CCOCC1)n2CCCSc1ncccn1` to `Cc1ccc(-c2nn(-c3ccccc3)cc2C(=O)N2CCOCC2)cc1C`, the “hERG current change (%, negative = inhibition) at 1uM” value falls from 6.15% to 5.14%.

First: Cc1ccc(NCCC(=O)c2ccc(Br)cc2)cc1
Second: Cc1nc2ccc(Br)cn2c1C(=O)N/N=C\c1ccccc1Cl
The “hERG current change (%, negative = inhibition) at 1uM” value of the first is lower: 8.22% for the first, 9.4% for the second.

Going from `Br.CCC(C)N1Cc2ccccc2C1=N` (stereo not shown) to `Cc1nc(N)sc1N=Nc1c(C)n(C)n(-c2ccccc2)c1=O`, the “hERG current change (%, negative = inhibition) at 1uM” value falls from 6.83% to -6.04%.

Going from `COc1ccccc1N1CCN(CC(O)COc2cccc3ccccc23)CC1.Cl.O` (stereo not shown) to `Cn1c(N)c(C(=O)c2cc(-c3ccncc3)nc3ccccc23)c(=O)n(C)c1=O`, the “hERG current change (%, negative = inhibition) at 1uM” value rises from -19.3% to 5.16%.

First: CCOC(=O)c1c(C)[nH]c(C2=NNC(=NC3CC3)SC2)c1C
Second: COCCNC(=O)C(c1ccc(C)o1)N(C(=O)C(=O)NC1CCCCC1)c1ccc(F)cc1 (stereo not shown)
The “hERG current change (%, negative = inhibition) at 1uM” value of the first is lower: -2.95% for the first, 8.36% for the second.

Compared with `Cc1ccc(-n2c(C)c([N+](=O)[O-])c3ccc(O)c(CN(C)C)c32)cc1`, `NS(=O)(=O)c1ccc2nc(NC(=O)Nc3ccccc3F)sc2c1` is higher in “hERG current change (%, negative = inhibition) at 1uM” value: -2.89% for the first, 10.7% for the second.
